This is an account of results in the antibiotic and cytotoxicity screens of Wong et al. (2023).

Structures are written as SMILES. Some of the results follow.

For test [1], the system named is HSkMC (human skeletal muscle cells). Kind of test: cytotoxicity call (relative viability < 0.9). Particulars: 10 µM.
The test system of test [2] is HepG2. In words: cytotoxicity call (relative viability < 0.9). Particulars: 10 µM.
The test system of test [3] is S. aureus RN4220. In words: growth inhibition call (relative growth <= 0.2). To be noted: 50 µM.

For the compound `COCC#Cc1ccc2c(c1)O[C@H](CN(C)C(=O)C1CCCCC1)[C@@H](C)CN([C@H](C)CO)S2(=O)=O`, the cytotoxicity call in test [1] and in test [2] was “inactive” throughout. Further, in test [3], the growth inhibition call was “inactive”.
On to `Cc1noc(C)c1NC(=O)N[C@@H]1CC[C@@H](CC(=O)NCCCN(C)C)O[C@H]1CO`, for which the cytotoxicity call in test [1] and in test [2] was “inactive” each time. The growth inhibition call in test [3] was “inactive”.
Turning to `O=C(N[C@H]1CC[C@@H](CC(=O)N2CCOCC2)O[C@H]1CO)c1ccc2c(c1)OCO2`, the cytotoxicity call in test [1] and in test [2] was “inactive” throughout. In addition, in test [3], the growth inhibition call is “inactive”.
As for `CCS(=O)(=O)N1C[C@]2(CN(C2)C(=O)Nc2ccc(cc2F)F)c2c(n(c3cc(ccc23)OC)C)[C@@H]1CO`, the cytotoxicity call in test [1] and in test [2] was “inactive” throughout. For the same compound, the growth inhibition call in test [3] is “inactive”.
For `COc1ccc(CNC(=O)C[C@H]2C[C@@H]3c4cc(NC(=O)NC5CCCC5)ccc4O[C@@H]3[C@H](CO)O2)cc1`, the cytotoxicity call in test [1] and in test [2] was “inactive” throughout. For the same compound, in test [3], the growth inhibition call is “inactive”.
In the case of `COc1ccc(CN(C)C[C@@H]2OCCCC[C@@H](C)Oc3ccc(NS(=O)(=O)c4ccc(C)cc4)cc3C(=O)N([C@H](C)CO)C[C@@H]2C)cc1`, the cytotoxicity call in test [1] and in test [2] was “inactive” in each case. In addition, the growth inhibition call in test [3] was “inactive”.
On to `C[C@H]1CN([C@@H](C)CO)C(=O)Cc2cc(NC(=O)Cn3cnnn3)ccc2O[C@H]1CN(C)S(=O)(=O)c1cn(C)cn1`, for which the cytotoxicity call in test [1] and in test [2] was “inactive” in each case. The growth inhibition call in test [3] is “inactive”.
As to `Nc1nccnc1Cl`, the cytotoxicity call in test [1] and in test [2] was “inactive” throughout. In test [3], the growth inhibition call is “inactive”.
Turning to `C[C@@H]1CCCCO[C@H](CN(C)Cc2ccc(C(F)(F)F)cc2)[C@H](C)CN([C@H](C)CO)C(=O)c2cc(NS(=O)(=O)c3ccc(Cl)cc3)ccc2O1`, the cytotoxicity call in test [1] is “inactive”. For the same compound, the cytotoxicity call in test [2] was “active”. Besides, in test [3], the growth inhibition call was “inactive”.
Consider `Cc1ccc(S(=O)(=O)N(C)C[C@@H]2Oc3ccc(NC(=O)Nc4ccc(C(F)(F)F)cc4)cc3CC(=O)N([C@@H](C)CO)C[C@@H]2C)cc1`, for which the cytotoxicity call in test [1] and in test [2] was “active” in each case. For the same compound, the growth inhibition call in test [3] is “inactive”.
`C[C@H]1CCCCO[C@@H](CN(C)C(=O)c2ccccc2)[C@@H](C)CN([C@@H](C)CO)C(=O)c2cc(NS(=O)(=O)c3cccs3)ccc2O1`: the cytotoxicity call in test [1] and in test [2] was “inactive” each time. Also, in test [3], the growth inhibition call was “inactive”.
